Results published in PubChem BioAssay (Tox21).
Results filed as inconclusive are left out. Unless noted, calls follow the shape of the dose curve; as a rule, active = well fitted curve in the direction sought with a large enough effect in the repeat runs; inconclusive = weak or mixed curves; inactive = no such curve, though single readings can be large; an effect the other way counts as inactive or inconclusive. Some structures have more than one record in an assay (separate samples or runs), and their calls can disagree. For part of its entries the source gives two or more results. This list holds those alone. There may be further records. Values given together are repeated measurements (runs, samples, wells, individuals or studies). Records carry a tag for their origin. A, B and so on number the origins entry by entry.

Tests used:
[1] = qHTS assay for small molecules that induce genotoxicity in human embryonic kidney cells expressing luciferase-tagged ATAD5 - cell viability (AID 651634; calls by dose curve; also: nearly all actives have a fitted effect of over 25% in size)
Outline: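 HEK293T ATAD5-luc cells, 2,000/well; compound 15.5 hr, 37C/5% CO2; CellTiter-Fluor 30 min, 37C; fluorescence read.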

[2] = qHTS assay to identify small molecule antagonists of the glucocorticoid receptor (GR) signaling pathway - cell viability counter screen (AID 720693); also: nearly all actives have a fitted effect of over 55% in size
[3] = qHTS assay to identify small molecule antagonists of the thyroid receptor (TR) signaling pathway (AID 743065); also: nearly all actives have a fitted effect of over 55% in size
Outline: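 GH3.TRE-Luc rat pituitary cells carrying two TR response elements driving luciferase were plated for 4 h, given compound plus 1 nM T3 (final), and incubated 23.5 h at 37 C. ONE-Glo luminescence measured reporter inhibition; CellTiter-Fluor fluorescence tracked cytotoxicity.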

[4] = A CellTox Green Cytotoxicity Assay to monitor cytotoxicity in HEK293 cells - 24 hour (AID 1224875); also: nearly all actives have a fitted effect of over 45% in size
Outline: (§1)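 Read-out: fluorescence of a cell-impermeant cyanine dye staining DNA of dead cells, proportional to cytotoxicity. HEK293, 600 cells/well with reagent, compound (23 nL DMSO) added after 5 h; reads at 0, 8, 16, 24, 32, 40 h.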

[5] = A CellTox Green Cytotoxicity Assay to monitor cytotoxicity in HEK293 cells - 16 hour (AID 1224888); also: nearly all actives have a fitted effect of over 35% in size
Outline: as §1

[6] = qHTS assay to identify small molecule antagonists of the progesterone receptor (PR) signaling pathway - cell viability counter screen (AID 1346798); also: nearly all actives have a fitted effect of over 50% in size
Excerpt: National Center for Advancing Translational Sciences [NCATS]
NIH Chemical Genomics Center [NCGC]
U.S. Environmental Protection Agency [EPA]
National Institutes of Environmental Health Sciences [NIEHS]
National Toxicology Program [NTP]
U.S. Food and Drug Administration [FDA]
Progesterone receptor (PR), a nuclear hormone receptor, plays an important role in development, metabolic homeostasis and reproduction. It is activated by the steroid hormone progesterone. Endocrine disrupting chemicals (EDCs) and their interactions with steroid hormone receptors like PR causes disruption of normal endocrine function. […]
PR-UAS-bla HEK293T cells were dispensed at 3,000 cells/4 uL of assay medium containing 2% charcoal stripped FBS per well into black wall/clear-bottom 1536-well plates using a Multidrop Combi (ThermoFisher Scientific, Waltham, MA) dispenser. […] Then 1 uL of LiveBLAzer B/G FRET substrate was added using a Flying Reagent Dispenser, the plates were incubated at room temperature for 2 hours, and fluorescence intensity was measured by an Envision plate reader (PerkinElmer, Shelton, CT). For cell viability readout that measures cytotoxicity, 4 uL/well of CellTiter-Glo reagent was added into the assay plates using a FRD. After 30 min incubation at room temperature, the luminescence intensity in the plates was measured using a ViewLux (PerkinElmer) plate reader.

[7] = qHTS assay to identify small molecule antagonists of the TGF-beta/Smad signaling pathway - cell viability counter screen (AID 1346824); also: nearly all actives have a fitted effect of over 50% in size
Outline: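 SBE-bla HEK 293T cells were plated overnight at 37 C, then given compounds in DMSO plus TGF-beta1 (added as 0.25 ng/mL solution) for 5 hr. After the bla read, CellTiter-Glo was added to the same wells and luminescence read after 30 min at room temperature.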
Potency is read from the fitted curve at half-maximal effect.

NNc1ccccc1
Potency [1]: inactive [sample A] and active: 2.43 µM [sample B] and active: 9.69 µM [sample C]

CCOP(=S)(OCC)Oc1cc(C)nc(C(C)C)n1
Potency [2]: inactive [sample A] and inactive [sample B] and active: 43.6 µM [sample C]
Potency [3]: inactive [sample A] and inactive [sample B] and active: 17.2 µM [sample C]

Clc1cnc(Oc2ccc(Oc3ncc(Cl)cc3Cl)cc2)c(Cl)c1
Potency [4]: inactive [sample A] and active: 27.5 µM [sample B]
Potency [5]: inactive [sample A] and active: 27.5 µM [sample B]

CC(C)c1cccc(C(C)C)c1O
Potency [4]: active: 21.8 µM [sample A] and active: 43.6 µM [sample B] and inactive [sample C]
Potency [5]: active: 24.5 µM [sample A] and active: 43.6 µM [sample B] and inactive [sample C]

C=CCN=C=S
Potency [6]: active: 49.6 µM [sample A] and inactive [sample B]

C=C(C)C(=O)OCC(CC)CCCC (stereo not given)
Potency [6]: active: 49.5 µM [sample A] and inactive [sample B]

CNC(=O)O/N=C/C(C)(C)S(C)=O (stereo not given)
Potency [7]: active: 17.6 µM [sample A] and inactive [sample B]
